# Assay results as given in ChEMBL document CHEMBL4888484, “Replenishing the malaria drug discovery pipeline: Screening and hit evaluation of the MMV Hit Generation Library 1 (HGL1) against asexual blood stage Plasmodium falciparum ,using a nano luciferase reporter read-out” (2022).
# The whole screen tested about 150,000 compounds, of which about 540 (0.36%) showed an effect of 50% or more. The list shows a part of the results.
# Tested on: Plasmodium falciparum
# Assay: Primary screen in NF54 nanoGlo assay, in single point, at 2uM, 72h; a lower Z score goes with more inhibition
# Type: functional, Erythrocyte
# Settings: timepoint 72 hour
Structure (SMILES),% Inhibition,Z score
Cc1ccc(S(=O)(=O)N(CC(=O)NCCOc2ccccc2)c2cccc(Cl)c2)cc1,-2%,0.35
C=CCOCC(O)CN(Cc1c(C)nn(-c2ccccc2)c1Oc1ccc(F)cc1F)CC1CCCO1 (stereo unspecified),-1%,0.07
Cc1nc2ccc(C(=O)N3CCC(c4ncon4)CC3)cc2o1,3%,-0.64
O=C(Nc1nc2c(s1)CN(C(=O)[C@H]1CC(=O)N(c3ccccc3)C1)CC2)c1ccoc1,4%,-0.52
CNC(=O)CCCC(=O)N1CCC[C@H](N(C)c2ccc(C)cc2)C1,6%,-0.88
COc1cc2c(NCc3nnc4n3CCCCC4)ccnc2cc1F,6%,-0.87
Cc1ccc(C(=O)OCC(=O)NC(=O)NCC(F)(F)F)c(O)c1,33%,-3.68
COC(=O)c1cccc(CCN=C(N(C)C)N(C)C)c1,-1%,0.08
COC(=O)N1CN(C(=O)OC)c2ccccc21,4%,-0.71
COc1ccc(F)cc1S(=O)(=O)N(CCn1ccc(C(F)(F)F)n1)C1CCCC1,0%,0.06
COc1cccc(-c2cnn(C)c2N)c1C(=O)N(C(C)C)C(C)C,-2%,0.23
CC(C)(C)OC(=O)N1CCC(CN2CCc3sccc3C2)CC1,-8%,1.59
Cn1ncc2cnn(C[C@H](O)c3ccccc3Br)c2c1=O,2%,-0.45
O=C(c1cccn2c(=O)[nH]nc12)N(Cc1ccccc1)C1CCCCC1,2%,-0.47
CCOCC1CCN(c2nnc(C(F)(F)F)s2)CC1,-3%,0.6
C[C@@H](C(=O)N1CCOCC1CC(O)c1ccccc1)c1ccccc1 (stereo partly specified),16%,-2.06
COCCC(=O)Nc1c(C(=O)OC)n(CCc2c[nH]c3ccccc23)c2ncc(NC3CCC3)cc12,-2%,0.26
CCCn1ncnc1[C@H](C)NC(=O)CCc1cccc(F)c1,-9%,1.06
CCOc1ccc(NC(=O)[C@@H]2CN(S(C)(=O)=O)c3cc(C)ccc3O2)cc1,-9%,1.14
C=CCn1c(C)c(CC(=O)Nc2cccc(Cl)c2C)c(=O)n2nc(-c3ccc(C)cc3)nc12,-9%,0.92
O=C(Nc1ccc(N2CCC(N3CCCCC3)CC2)cc1C(=O)O)c1cccc(Cl)c1,-10%,1.47
COc1ccccc1N1CCN(C(=O)c2cnc(N3CCN(C)CC3)nc2C)CC1,-2%,0.37
CCOC(=O)c1cn(Cc2ncc(CC)o2)c2nc(C)ccc2c1=O,-5%,0.42
